# From publication PMC4336329 (PLoS ONE, 2015)
# In all, about 310,000 compounds went through this assay and about 14,000 (4.5%) showed an effect of 50% or more. Effects have a minus sign here. Some of the results follow.
# Target: human ether-à-go-go-related gene (hERG) potassium channel (human, UniProt Q12809)
# Experiment: primary screen, population patch clamp on CHO cells stably expressing hERG
# 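Further: peak tail current of the secondary pulse compared with the same well before compound.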
# Chain of human ether-à-go-go-related gene (hERG) potassium channel (Q12809 whole entry, looked up): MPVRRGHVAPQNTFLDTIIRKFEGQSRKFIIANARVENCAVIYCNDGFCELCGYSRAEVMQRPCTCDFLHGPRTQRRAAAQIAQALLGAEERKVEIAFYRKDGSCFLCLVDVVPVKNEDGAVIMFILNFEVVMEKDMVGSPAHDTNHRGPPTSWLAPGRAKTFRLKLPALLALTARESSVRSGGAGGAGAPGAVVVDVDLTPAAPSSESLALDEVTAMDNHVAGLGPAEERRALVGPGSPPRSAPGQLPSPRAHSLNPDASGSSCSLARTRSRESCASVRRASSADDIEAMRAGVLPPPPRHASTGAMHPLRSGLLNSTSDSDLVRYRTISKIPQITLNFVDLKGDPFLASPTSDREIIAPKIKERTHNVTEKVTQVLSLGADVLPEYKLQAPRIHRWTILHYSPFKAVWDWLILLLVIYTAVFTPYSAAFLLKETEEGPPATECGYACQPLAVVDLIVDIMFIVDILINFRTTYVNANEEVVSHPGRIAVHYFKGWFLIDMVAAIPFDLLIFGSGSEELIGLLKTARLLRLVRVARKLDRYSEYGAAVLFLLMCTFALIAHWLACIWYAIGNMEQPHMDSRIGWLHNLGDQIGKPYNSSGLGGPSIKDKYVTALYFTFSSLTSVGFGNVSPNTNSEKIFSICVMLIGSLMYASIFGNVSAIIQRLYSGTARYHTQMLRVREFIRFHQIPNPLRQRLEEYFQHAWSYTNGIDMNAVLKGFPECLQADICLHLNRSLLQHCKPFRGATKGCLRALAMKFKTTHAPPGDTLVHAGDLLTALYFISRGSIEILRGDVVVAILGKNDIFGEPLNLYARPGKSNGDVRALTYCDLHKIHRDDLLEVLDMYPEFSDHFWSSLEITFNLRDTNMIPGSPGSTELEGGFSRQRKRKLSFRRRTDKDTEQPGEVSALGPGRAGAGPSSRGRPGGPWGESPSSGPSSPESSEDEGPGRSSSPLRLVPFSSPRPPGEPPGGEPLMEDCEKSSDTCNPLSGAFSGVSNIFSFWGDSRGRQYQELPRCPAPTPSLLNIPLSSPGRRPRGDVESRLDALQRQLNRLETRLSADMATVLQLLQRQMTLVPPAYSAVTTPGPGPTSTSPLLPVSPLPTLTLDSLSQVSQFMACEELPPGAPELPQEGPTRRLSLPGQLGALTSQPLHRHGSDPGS
row,SMILES,"hERG current change (%, negative = inhibition) at 10uM [%]"
1,Cc1cc(=O)n2nc(N3CCCC3C(=O)NCc3ccccn3)sc2n1 (centres unmarked),12.7
2,Cc1nnc2n(-c3ccccc3)c(=O)c3ccccc3n12,7.19
3,Cc1ccc(-n2c(-c3ccc(Br)cc3)c[n+]3c2CCc2ccc4cccnc4c2-3)cc1.[Br-],-74.2
4,N#Cc1c(N2CCOCC2)nc(-c2ccco2)c2c1CCCC2,2.48
5,Cl.O=c1cc(-c2ccccc2)[nH]n1-c1nc2ccccc2[nH]1,7.02
6,CCCCNS(=O)(=O)c1ccc2nc(-c3cccnc3)cc(C(=O)NC(C)C)c2c1,16.7
7,CCC(=O)N1CCN(c2ccccc2NC(=O)Cc2ccc(Cl)cc2)CC1,-68.6
8,O=CN1CCN(C2CC(=O)N(c3ccc(Br)cc3)C2=O)CC1 (centres unmarked),6.1
9,Cc1cccc(NS(=O)(=O)c2nnc(NC(=O)c3cccc(C)c3)s2)c1,2.44
10,Cc1cc(OCC(=O)OCC(=O)NCc2ccc3c(c2)OCO3)ccc1Cl,18.5
11,Cc1occc1-c1nnc(SCC(=O)N(C)c2ccccc2)n1C,-4.33
12,CCC(=O)Nc1ccc(N2CCC(C)CC2)cc1,14.8
13,Clc1ccc2c(c1)nc1n2CCCC1,1.2
14,CCn1c(C)nc2cc(C(=O)NNC(=S)Nc3ccc(Cl)cc3Cl)ccc21,0.0231
15,COc1ccccc1/C=N/NC(=O)CO,16.4
16,CCc1ccc(OC)c(S(=O)(=O)NCCOc2ccccc2)c1,-5.9
17,CCN1CC(CN(C)Cc2nc(-c3ccco3)oc2C)CC1=O (centres unmarked),10.4
18,Cc1nnc(SCc2ccccc2C#N)n1-c1ccccc1,4.24
19,Cc1c(C(=S)Nc2ccccc2)cnn1-c1ccccc1,-0.289
20,Cn1cc(CNC(=O)C2CCC(=O)N(Cc3ccc(Cl)cc3)C2)cn1 (centres unmarked),-1.76
21,O=C(CCc1ccccc1)N1C[C@H]2C[C@@H](C1)c1cccc(=O)n1C2,-16
22,CCN(CC)c1ccc(C2CC(=O)Nc3cc(OC)c(OC)cc32)cc1 (centres unmarked),-7.45

row,SMILES,"hERG current change (%, negative = inhibition) at 10uM [%]"
1,CCCOc1ccc(N2C(=O)CC(N3CC=C(c4ccccc4)CC3)C2=O)cc1 (centres unmarked),8.23
2,CCOc1cc(/C=N/Nc2nn3cnnc3c3ccccc23)ccc1O,-8.74
3,COc1ccc(NC(=O)N2CCc3ccccc3C2)c(OC)c1,8.36
4,Cc1ccc(S(=O)(=O)N2CCOCC2)cc1NC(=O)COC(=O)c1cnccn1,5.4
5,COc1ccc(N2CCN(c3cnc4ccccc4n3)CC2)cc1,5.76
6,C[C@H]1O[C@@H](OC2CC[C@]3(C=O)[C@H]4CC[C@]5(C)[C@@H](C6=CC(=O)OC6)CC[C@]5(O)[C@@H]4CC[C@]3(O)C2)CC2OC(C)(C)OC21 (some centres unmarked),0.41
7,CCc1ccc(CNC(=O)CCc2nnc(Cc3cccc(C(F)(F)F)c3)o2)nc1,-41.1
8,O=C(CCn1c(=O)oc2ccccc21)N1CCN(c2ccc(F)cc2)CC1,-58
9,COC(=O)c1ccccc1NC(=O)C1CCN(C(=O)c2cc(OC)cc(OC)c2)CC1,-37.6
10,CCOc1ncnc2c1[nH]c1ccccc12,9.71
11,CCCn1nnnc1NCc1ccc(N(CC)CC)cc1,10.3
12,Cc1cc(C)nc(NC(=O)c2cc([N+](=O)[O-])cc([N+](=O)[O-])c2)n1,0.675
13,COc1ccc(C2c3[nH]c4ccccc4c3C[C@H]3C(=O)N(c4ccccc4C(=O)N4CCC[C@@H]4C(=O)O)C(=O)N23)cc1 (some centres unmarked),14.8
14,Cc1nnsc1NC(=O)OCC(C)C,26.6
15,Cc1[nH]n(-c2ccc(Br)cc2)c(=O)c1/C=N/NC(=O)c1ccccc1,10.4
16,CN(C(=O)COC(=O)CNC(=O)c1ccc(Cl)cc1Cl)c1ccccc1,38.1
17,CCCCN(CC)Cc1ccc(CNC(=O)Nc2ccc(F)cc2)o1,-32.1
18,COc1ccc(-c2noc(COc3ccc4c(c3)OCO4)n2)cc1OC,4.02
19,COc1ccccc1CNC(=O)COC(=O)c1nc(Cl)ccc1Cl,-2.78
20,Cn1cc(C(=O)Nc2ccc(F)c(Cl)c2)cn1,0.537
21,CC1=C(C(=O)OCC2CCCCC2)C(c2ccc(O)cc2)NC(=O)N1 (centres unmarked),12.7
22,c1ccc2c(-c3nnc4n3CCCCC4)cc(-c3ccncc3)nc2c1,-48.7
